Results from PubChem BioAssay AID1345082 (National Center for Advancing Translational Sciences (NCATS), 2018).
Screen size: about 94,000 compounds; about 4,000 (4.3%) were called active. The shares of active, inactive and inconclusive entries below differ from those in the screen. Calls follow the shape of the dose curve; as a rule, active = well fitted inhibition curve with a large enough effect; inconclusive = small, poorly fitted or top-dose-only effect; inactive = no such curve, though single readings can be large or run the other way. A potency beside an inconclusive call is a rough fit, not a confirmed value.

Test: Cytotoxic Profiling in NIH 3T3 Cell Line of Diverse Libraries Using Quantitative High-Throughput Screening; also: nearly all actives have a fitted effect of over 55% in size
Settings: NIH 3T3 viability, CellTiter-Glo ATP luminescence, 48-72 h; activity change, negative = cytotoxicity: at 96.7 µM (top of the series) unless noted; series mostly up to 96.7 µM
Method in brief: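 Cells were seeded at 400 per well, treated with pin-transferred compound, and kept 48 or 72 hr at 37 °C before CellTiter-Glo addition and luminescence imaging of cellular ATP.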
% is scaled to controls: 0 for no effect and ±100 for the full control effect; potency is read from the fitted curve at half-maximal effect; tags tell the direction and shape of the fitted curve.

Row | SMILES | activity change, negative = cytotoxicity | Potency
1 | CN1CC2(CCN(Cc3cn(C)c4ccccc34)CC2)CC1C(=O)N1CCOCC1 (stereo not given) | inactive: -24.6% | 
2 | O=C(NC[C@H]1O[C@H](Cc2cc(COc3ccccc3)on2)CC[C@@H]1O)Nc1ccc(F)cc1 |  | inconclusive: 25.1 µM [inhibitor, partial curve, poor fit]
3 | Cc1ccc(-c2cccc(CN3CCCC3C(=O)NC(C)C)c2)cc1Cl (stereo not given) |  | active: 22.4 µM
4 | CN1C(=O)C2(CCN(Cc3ccccc3)C2)c2ccccc21 (stereo not given) |  | inconclusive: 89.1 µM [inhibitor, single point]
5 | CC(C)(N)C(=O)N1CCCC(N2CCN(c3cccc(Cl)c3)CC2)C1 (stereo not given) |  | inconclusive: 79.4 µM [inhibitor, single point]
6 | CC(C)Oc1cc(N(C)CC2CC(=O)N(C(C)(C)C)C2)nc(N)n1 (stereo not given) | inactive: -9.36% | 
7 | Cc1ccc(C(=O)N[C@H]2CO[C@H]3[C@@H]2OC[C@@H]3Nc2nccc(C(C)(C)C)n2)cc1 |  | inconclusive: 100 µM [inhibitor, partial curve]
8 | CC1=C[C@@H](CNC(=O)Nc2ccc(Cl)cc2)[C@H](C(C)C)C[C@H]1CC(=O)N(C)Cc1cccnc1 |  | inconclusive: 44.7 µM [inhibitor, partial curve, poor fit]
9 | O=C(NCCN1CCOCC1)c1nc2sccn2c1-c1ccccc1 | inactive: -8.86% | 
10 | CC(=O)NCC(=O)N1CCCn2cc(-c3ccc4c(c3)OCO4)nc21 | inactive: -3.01% | 
11 | COc1ccc(-c2cc(N3CCC(NC(=O)c4ccc(Cl)cc4OC)CC3)n[nH]2)cc1 |  | inconclusive: 14.1 µM [inhibitor, full curve, poor fit]
12 | Cn1cnc(S(=O)(=O)N2CCC(OCc3noc(C4CCCO4)n3)CC2)c1 (stereo not given) | inactive: 0.433% | 
13 | O=C(O)CSCC(=O)N[C@H]1CO[C@H]2[C@@H]1OC[C@@H]2Nc1nccc(-c2cccc(F)c2)n1 | inactive: 1.2% | 
14 | O=C(C1=NO[C@@H]2CN(Cc3ccsc3)C[C@H]12)N1CCOCC1 |  | inconclusive: 112 µM [inhibitor, single point]
15 | O=C(NCc1cccc(F)c1)C1CCCN(c2nc3ncccc3o2)C1 (stereo not given) |  | inconclusive: 112 µM [inhibitor, single point]
16 | CC(C)Oc1ccc(C(=O)N2C[C@@H]3CCN(C)C[C@]3(C(=O)O)C2)cc1 |  | inconclusive: 50.1 µM [inhibitor, partial curve, poor fit]
17 | Cc1nn(-c2ccccc2)c2c1C(C)N(C1CCN([S+](=O)([O-])c3c(C)noc3C)CC1)C2=O (stereo not given) | inactive: -19.2% | 
18 | COc1ccc2cc(C(=O)N3CCC(Cc4ccc(C(=O)NC5CC5)cc4)CC3)[nH]c2c1 |  | active: 28.2 µM
19 | CN1CCCCC(CC(=O)N2CCN(c3ccc(F)cc3)CC2)C1=O (stereo not given) | inactive: -3.94% | 
20 | O=C1c2c(nc(COc3ccccc3)n2Cc2ccccc2)NCCN1Cc1cccc(Cl)c1 |  | active: 28.2 µM
21 | Cc1ccc(OCC(=O)N2CCOc3ccc(CN4CCOCC4)cc3C2)cc1 | inactive: -29.7% | 
22 | c1csc(-c2nc3nccc(-c4ccsc4)n3n2)c1 |  | inconclusive: 50.1 µM [inhibitor, partial curve, poor fit]

Row | SMILES | activity change, negative = cytotoxicity | Potency
23 | COc1ccc(CN2C(=O)[C@@H]3C[C@@H](CN3C3CCC3)Oc3ccccc32)cc1 |  | active: 31.6 µM
24 | O=C(CN1C(=O)NC(c2ccccc2Cl)C2=C1COC2=O)Nc1cccc(F)c1 (stereo not given) | inactive: -28.2% | 
25 | COCCn1c(=O)c2c(n1Cc1ccccc1)CN(C(=O)c1cc3ccccc3[nH]1)CC2 |  | inconclusive: 11.2 µM [inhibitor, full curve, poor fit]
26 | COC(=O)[C@@H]1Cc2c([nH]c3ccccc23)[C@H]2C[C@@H](NCCN3CCOCC3)C[C@@H](c3ccc(OC(F)(F)F)cc3)N21 |  | active: 22.4 µM
27 | CCNC(=O)C1C(c2cccc(NC(=O)c3ccc(C)cc3)c2)OC(=O)N1Cc1ccc(F)cc1 (stereo not given) |  | inconclusive: 70.8 µM [inhibitor, partial curve, poor fit]
28 | COc1ccccc1-c1ccnc(N[C@H]2CO[C@H]3[C@@H]2OC[C@@H]3NS(=O)(=O)c2cccs2)n1 |  | inconclusive: 44.7 µM [inhibitor, partial curve, poor fit]
29 | Cc1ccc(CNC(=O)c2cc3cn(C(C)C)cc3s2)cc1 |  | inconclusive: 50.1 µM [inhibitor, partial curve, poor fit]
30 | CCOc1ccc(CC(=O)NC2CCN(c3cc(-c4cccs4)[nH]n3)C2)cc1 (stereo not given) |  | active: 15.8 µM
31 | CC1CCC2(CC1)OCC(C(=O)NC(C)c1ccccc1)N2C(=O)c1cccc(Cl)c1 (stereo not given) |  | inconclusive: 50.1 µM [inhibitor, partial curve, poor fit]
32 | CCc1nnc(N2CCCC3(CCC(=O)N(Cc4ccccc4)C3)C2)s1 (stereo not given) | inactive: -11.5% | 
33 | O=[S+]([O-])(c1ccccc1)N1CCn2c(nnc2-c2ccc(Cl)cc2)C1 |  | inconclusive: 31.6 µM [inhibitor, partial curve]
34 | COc1nccc(N2CCC(CC(=O)NCc3ccccc3F)CC2)n1 |  | inconclusive: 28.2 µM [inhibitor, partial curve]
35 | COC(=O)C1=C(C)N=C2SC=C(CC(=O)N(C)Cc3ccco3)N2C1c1cccc(Cl)c1 (stereo not given) |  | inconclusive: 50.1 µM [inhibitor, partial curve, poor fit]
36 | CN(CC1(C)CCOCC1)C(=O)c1ccc(F)c(Cl)c1 | inactive: 2.56% | 
37 | CN(Cc1ccc(-c2ccccc2)cc1)C(=O)Nc1ccc(Cl)cc1 |  | inconclusive: 35.5 µM [inhibitor, partial curve, poor fit]
38 | CCOc1ccc(C(=O)N2CCC(Cc3nc(C(C)C)no3)CC2)cc1 |  | inconclusive: 28.2 µM [inhibitor, partial curve]
39 | CN(C)CC1(O)CCC2(CCN(C(=O)CCc3ccccc3)CC2)CC1 | inactive: -32.6% | 
40 | COc1cccc(CN2CCOC3(CCN([S+](=O)([O-])c4ccccc4)CC3)C2=O)c1 |  | inconclusive: 56.2 µM [inhibitor, partial curve, poor fit]
41 | Cc1noc(-c2ccn3c(CNC(=O)c4cccc(N(C)C)c4)nnc3c2)n1 |  | inconclusive: 50.1 µM [inhibitor, partial curve, poor fit]
42 | O=c1[nH]c(C2CCCN(Cc3ccc(-c4ccsc4)cc3)C2)nc2ccc(F)cc12 (stereo not given) |  | inconclusive: 50.1 µM [inhibitor, partial curve, poor fit]
43 | CO[C@@H]1C[C@@H]2CC(C)(C)OC[C@@]2(O)[C@H]1N1CCN(c2ccc([N+](=O)[O-])cc2)CC1 | inactive: -31.3% [at 46.1 µM] | 
44 | CN(C)C(=O)c1cc(-c2ccc(Cl)cc2Cl)nc2c1cnn2C | inactive: -27.8% | 

Row | SMILES | activity change, negative = cytotoxicity | Potency
45 | Cc1ccc(C(=O)Nc2ccc3c(N4CCCCC4)ncnc3c2)cc1F |  | inconclusive: 11.2 µM [inhibitor, full curve, poor fit]
46 | Cc1noc2nc3c(c(C(=O)N[C@H]4CC[C@H]4NC4CCCC4)c12)CCC3 |  | inconclusive: 89.1 µM [inhibitor, single point]
47 | O=C(O)Cn1ccc2cc(OCCc3cccc(-c4ccc(Cl)cc4)c3)cnc21 |  | inconclusive: 89.1 µM [inhibitor, partial curve, poor fit]
48 | C[C@H]1CCCN1C(=O)c1nnc(COc2ccc(Cl)cc2)n1-c1ccccc1 |  | active: 3.16 µM
49 | Cc1ccccc1N1Cc2c(NCc3cccs3)ncnc2N(C)CC1=O |  | inconclusive: 50.1 µM [inhibitor, partial curve, poor fit]
50 | COc1ccccc1CNC(=O)c1cc(-c2ccccc2F)nc2c1cnn2C |  | active: 25.1 µM
51 | CCOc1ccccc1CNC(=O)c1cc2c(N3CCCC3)nc(C)cn2n1 |  | inconclusive: 44.7 µM [inhibitor, partial curve, poor fit]
52 | O=C(Cc1cccc(Cl)c1)NC1CCN(Cc2cccc(-c3cccs3)c2)CC1 |  | active: 11.2 µM
53 | COc1ccc(CC(=O)N2CCC(Oc3ccc(C(=O)N(C)C)cn3)CC2)cc1Cl | inactive: -19.5% | 
54 | Cc1ccc(C(=O)Nc2ccc3c(N4CCOCC4)ncnc3c2)cc1 |  | inconclusive: 20 µM [inhibitor, full curve, poor fit]
55 | COc1ccc(CN2CCC3(Cc4ccccc4NC3=O)C2)cc1 (stereo not given) |  | inconclusive: 89.1 µM [inhibitor, partial curve, poor fit]
56 | CC(=O)c1ccc(N2CC[C@@H](NC(=O)c3cnccn3)[C@H](O)C2)nc1 | inactive: -5.55% | 
57 | Cc1ccc(CNC(=O)C2CCN(C(=O)c3ncn4c3COC(c3ccc(Cl)cc3)C4)CC2)cc1 (stereo not given) | inactive: -6.8% | 
58 | Cc1ccc(CN2CCOC[C@H](Oc3ccc(C(F)(F)F)cc3)C2)cc1 |  | active: 79.4 µM
59 | Cc1ccc(OCc2nc(C3CCCCN3C(=O)CCc3ccccc3)no2)cc1 (stereo not given) |  | inconclusive: 70.8 µM [inhibitor, single point]
60 | CCOc1ccccc1C(=O)N1CCCN(c2cc(-c3ccc(F)cc3)[nH]n2)CC1 |  | inconclusive: 44.7 µM [inhibitor, partial curve, poor fit]
61 | CCOc1ccccc1C1NC(=O)N(CC(=O)Nc2cccc(Cl)c2)C2=C1C(=O)OC2 (stereo not given) |  | inconclusive: 39.8 µM [inhibitor, partial curve, poor fit]
62 | Cc1ccc(C2Cn3nnc(C(=O)N4CCC(C(=O)Nc5cccc(Cl)c5)CC4)c3CO2)cc1 (stereo not given) |  | inconclusive: 44.7 µM [inhibitor, partial curve, poor fit]
63 | CC(C)CCNC1(Cc2cc(-c3ccc(F)cc3)on2)COC1 |  | inconclusive: 63.1 µM [inhibitor, full curve]
64 | CC(C)CN(Cc1cnn(C)c1)C(=O)C1CCC(=O)N(CC2CCCCC2)C1 (stereo not given) |  | inconclusive: 22.4 µM [inhibitor, full curve, poor fit]
65 | COCCN1CC2(CCC1=O)CCN(c1nc(C(C)C)ccc1C#N)CC2 |  | inconclusive: 44.7 µM [inhibitor, partial curve]
